# According to PubChem BioAssay (NCATS):
# Inconclusive results, whose numbers are uncertain, are shown with a selection of clear calls. For some of these results: Potencies of inconclusive entries are left out as doubtful fits. Active and inactive are the calls of the source. The call rests on the fitted dose curve; in most records, active means well fitted curve in the direction sought with a large enough effect; inconclusive means small, poorly fitted or top-dose-only effect, or another doubt; inactive means no such curve, though single readings can be large; an effect the other way counts as inactive or inconclusive.
# Assays:
# [1] = qHTS screen for small molecules that inhibit ELG1-dependent DNA repair: Hit Confirmation with 5FU Viability (AID 624250); further: potency means the concentration at half of the fitted maximal effect
# Text: Cancer cells divide rapidly compared to normal cells in the body. During cell division, cancer cells need to duplicate their genome by DNA replication. The failure of genome duplication leads to cancer cells' death. Therefore, inhibitors of DNA replication could specifically kill cancer cells. Based on this concept, many chemotherapeutic agents were developed and have been used to treat cancer patients. However, there are a limited number of agents available in the clinical setting, and some of those that do exist have low efficacy and severe side effects. Therefore, if we can find the compounds that effectively block DNA replication either by directly damaging DNA or by inhibiting other cellular mechanisms, the options for cancer treatment will be broadened. With this in mind, we developed a quantitative high-throughput ELG1-luciferase reporter gene assay. Small molecules that specifically block ELG1 function in response to DNA damage can be identified by monitoring the suppression of luciferase activity. Since ELG1 defines a pathway for repairing DNA damage, agents blocking ELG1 function can be used to sensitize cancer cells to chemotherapeutic agents whose mechanism of action involves the induction of DNA damage.
# NIH Molecular Libraries Probe Production Network [MLPCN]
# NIH Chemical Genomics Center [NCGC]
# Assay Provider: Kyungjae Myung, NHGRI, NIH
# ELG1-luc HEK293T cells will be seeded in 1536-well plates at a density of 2,000 cells/well. Approximately 5 hours after plating, compounds will be added to the plate by pin tool transfer and 5-fluorouridine will be added by FRD dispenser (final concentration of 5-fluorouridine =10 µM). 16 hours following the addition of the compounds, cell viability will be measured using Cell Titer Glo.
# [2] = molecular target: Rap guanine nucleotide exchange factor 3 (Homo sapiens) (UniProt O95398); assay: Confirmatory qHTS for antagonist of cAMP-regulated guanine nucleotide exchange factor 3 (EPAC1) (AID 1645880); conditions: EPAC1 Rap1B-BODIPY-GDP exchange, fluorescence; activity, negative = inhibition: at 115 µM (top of the series); further: nearly all actives have a fitted effect of over 55% in size; further: potency means the concentration at half of the fitted maximal effect;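 on activity, negative = inhibition: plate controls were DMSO only for no effect and full effect of the ATA control for full effect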
# Summary of the method: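 Nucleotide exchange uses 100 nM EPAC1, 250 nM RAP1B-BODIPY-GDP and 50 uM GDP, with compounds in a concentration-titration series. After 5 min at room temperature, fluorescence (480 nm ex/540 nm em) is read every 5 min for 30 min. Data are normalized to control ATA and DMSO.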
# [3] = molecular target: Rap guanine nucleotide exchange factor 3 (Homo sapiens) (UniProt O95398); assay: Confirmatory qHTS for agonist of cAMP-regulated guanine nucleotide exchange factor 3 (EPAC1) (AID 1645881); conditions: EPAC1 Rap1B BODIPY-GDP exchange fluorescence; activation: at 154 µM (top of the series), 100% = cAMP control response; further: nearly all actives have a fitted effect of over 75% in size; further: potency means the concentration at half of the fitted maximal effect;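 on activation: EPAC1 catalysed release of BODIPY-GDP from Rap1B seen as fluorescence loss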
# [4] = molecular target: Rap guanine nucleotide exchange factor 3 (Homo sapiens) (UniProt O95398); assay: Counterscreen qHTS for agonist of cAMP-regulated guanine nucleotide exchange factor 3 (EPAC1) (AID 1645889); conditions: EPAC1 Rap1B-BODIPY-GDP exchange, fluorescence; activation: at 154 µM (top of the series) unless noted; further: nearly all actives have a fitted effect of over 40% in size; further: potency means the concentration at half of the fitted maximal effect; on activation: % of control where 0% means no effect
# Summary of the method: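 Measured: fluorescence of BODIPY-GDP bound to Rap1B, which falls as exchange proceeds. Conditions include 50 uM competing GDP, 5 and 30 min reads, and a later cAMP challenge for antagonist detection.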
# [5] = molecular target: DNA polymerase kappa (Homo sapiens) (UniProt Q9UBT6); assay: qHTS for Inhibitors of Polymerase Kappa: Confirmatory Assay for Cherry-picked Compounds (AID 720501); conditions: purified Pol-kappa, fluorescent strand-displacement substrate; further: potency means the concentration at half of the fitted maximal effect
# Summary of the method: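 Human Pol-kappa, dispensed at 10 nM, was preincubated with compounds for 15 min at room temperature. Reactions were started with primer/template substrate (50 nM final) carrying a TAMRA reporter strand and BHQ-2-quenched template, and fluorescence (ex 525/em 598 nm) was read at 0 and 10 min.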
# [6] = molecular target: Rap guanine nucleotide exchange factor 4 (Homo sapiens) (UniProt Q8WZA2); assay: Confirmatory qHTS for agonist of cAMP-regulated guanine nucleotide exchange factor 4 (EPAC2) (AID 1645884); conditions: EPAC2 GEF activity, Rap1B-BODIPY-GDP fluorescence; activation: at 154 µM (top of the series), percent relative to cAMP agonist control;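 further: nucleotide exchange releases bodipy-GDP from Rap1 and this lowers its fluorescence; on the % scale 0 is the no-effect control and ±100 the full control effect; nearly all actives have a fitted effect of over 65% in size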
# [7] = molecular target: RecQ-like DNA helicase BLM (Homo sapiens) (UniProt P54132); assay: qHTS for Inhibitors of WRN Helicase: BLM Helicase Counterscreen for WRN Inhibitors (AID 720503);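 further: plate controls were DMSO vehicle for no effect and enzyme-free control wells for full effect; nearly all actives have a fitted effect of over 60% in size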
# Summary of the method: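 BLM at 1 nM was preincubated with compound for 15 min at room temperature in 25 mM Tris-HCl pH 8.0, 50 mM NaCl, 2 mM MgCl2, 1 mM DTT and 0.01% Tween-20. Unwinding was started with 100 nM DNA and 2 mM ATP (final). Fluorescence (ex 525/em 598 nm) was read twice, 15 min apart, and normalized to enzyme-free and DMSO controls.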
# [8] = molecular target: DNA polymerase eta (Homo sapiens) (UniProt Q9Y253); assay: qHTS for Inhibitors of Polymerase Eta: Confirmatory Assay for Cherry-picked Compounds (AID 720502); conditions: Pol eta primer extension, TAMRA/BHQ fluorescence, 10 min; further: potency means the concentration at half of the fitted maximal effect
# Summary of the method: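 10 nM Pol eta + cpd, 15 min RT; start w/ 50 nM final primer/TAMRA-reporter/BHQ-2-template substrate; kinetic read 0 and 10 min, ex 525/em 598 nm. Buffer-only wells = negative control.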
# [9] = molecular target: ATPase family AAA domain-containing protein 5 (Homo sapiens) (UniProt Q96QE3); assay: HTS assay for small molecules that inhibit ELG1-dependent DNA repair in human embryonic kidney (HEK293T) cells expressing luciferase-tagged ELG1: Hit Confirmation (AID 624248); conditions: HEK293T ELG1-luciferase levels, luminescence; cells co-treated with 5-fluorouridine; further: potency means the concentration at half of the fitted maximal effect; nearly all actives have a fitted effect of over 55% in size
# Summary of the method: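 Cells (2,000/well) received 5-Fluorouridine plus pin-transferred compound or DMSO and were incubated 16 hr at 37 °C, 5% CO2. Luciferase activity was read by ONE-Glo luminescence after 30 min at room temperature; inhibitors suppress the signal.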
# Tags describe the fitted curve by direction and shape.
# Chain of UniProt O95398 (O95398 whole entry, looked up): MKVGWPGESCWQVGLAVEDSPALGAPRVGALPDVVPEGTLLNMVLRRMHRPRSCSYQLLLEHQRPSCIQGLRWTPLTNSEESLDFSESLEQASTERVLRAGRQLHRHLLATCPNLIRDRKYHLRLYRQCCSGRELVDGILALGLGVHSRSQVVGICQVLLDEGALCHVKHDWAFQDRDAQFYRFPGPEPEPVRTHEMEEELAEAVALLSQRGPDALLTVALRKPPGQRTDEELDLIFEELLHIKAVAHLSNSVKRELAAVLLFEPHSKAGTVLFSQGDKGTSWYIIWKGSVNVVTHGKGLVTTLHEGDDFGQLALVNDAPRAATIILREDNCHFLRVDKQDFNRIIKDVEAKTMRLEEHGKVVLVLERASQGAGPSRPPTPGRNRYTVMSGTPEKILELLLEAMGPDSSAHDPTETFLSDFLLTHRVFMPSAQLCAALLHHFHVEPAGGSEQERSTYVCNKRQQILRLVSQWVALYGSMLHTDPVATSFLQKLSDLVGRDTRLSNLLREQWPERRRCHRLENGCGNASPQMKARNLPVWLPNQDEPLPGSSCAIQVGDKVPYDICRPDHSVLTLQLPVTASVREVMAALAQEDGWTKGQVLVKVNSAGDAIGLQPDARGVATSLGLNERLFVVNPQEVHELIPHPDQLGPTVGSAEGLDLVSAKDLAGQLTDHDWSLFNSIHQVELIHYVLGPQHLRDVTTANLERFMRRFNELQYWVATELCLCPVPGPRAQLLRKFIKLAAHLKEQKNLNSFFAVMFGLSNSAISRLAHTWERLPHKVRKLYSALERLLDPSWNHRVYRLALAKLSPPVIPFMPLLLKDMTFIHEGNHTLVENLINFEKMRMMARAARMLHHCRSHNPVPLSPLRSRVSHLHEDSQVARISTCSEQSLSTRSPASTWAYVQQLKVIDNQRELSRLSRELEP
# Chain of UniProt Q9UBT6 (Q9UBT6 whole entry, looked up): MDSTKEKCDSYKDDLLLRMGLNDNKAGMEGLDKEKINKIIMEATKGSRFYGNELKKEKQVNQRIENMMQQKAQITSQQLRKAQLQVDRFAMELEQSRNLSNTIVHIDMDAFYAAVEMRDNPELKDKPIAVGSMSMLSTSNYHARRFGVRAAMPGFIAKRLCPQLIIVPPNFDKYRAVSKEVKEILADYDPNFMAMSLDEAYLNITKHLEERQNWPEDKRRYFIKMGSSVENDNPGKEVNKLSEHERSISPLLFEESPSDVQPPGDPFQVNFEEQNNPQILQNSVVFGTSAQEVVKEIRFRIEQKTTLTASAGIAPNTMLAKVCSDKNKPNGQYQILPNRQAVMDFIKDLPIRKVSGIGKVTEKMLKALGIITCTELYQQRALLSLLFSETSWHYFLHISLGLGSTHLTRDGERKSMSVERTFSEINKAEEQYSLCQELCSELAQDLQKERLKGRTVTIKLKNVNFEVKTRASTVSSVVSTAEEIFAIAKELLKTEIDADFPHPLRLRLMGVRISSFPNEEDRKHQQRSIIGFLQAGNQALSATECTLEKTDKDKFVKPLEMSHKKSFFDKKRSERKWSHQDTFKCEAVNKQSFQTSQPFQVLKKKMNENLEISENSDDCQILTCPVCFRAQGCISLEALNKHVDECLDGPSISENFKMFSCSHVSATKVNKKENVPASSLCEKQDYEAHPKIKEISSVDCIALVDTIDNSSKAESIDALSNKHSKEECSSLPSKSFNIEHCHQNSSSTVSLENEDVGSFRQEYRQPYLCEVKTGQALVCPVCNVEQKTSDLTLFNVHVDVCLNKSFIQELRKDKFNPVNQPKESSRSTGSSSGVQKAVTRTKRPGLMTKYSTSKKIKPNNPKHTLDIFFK
# Chain of UniProt Q9Y253 (Q9Y253 whole entry, looked up): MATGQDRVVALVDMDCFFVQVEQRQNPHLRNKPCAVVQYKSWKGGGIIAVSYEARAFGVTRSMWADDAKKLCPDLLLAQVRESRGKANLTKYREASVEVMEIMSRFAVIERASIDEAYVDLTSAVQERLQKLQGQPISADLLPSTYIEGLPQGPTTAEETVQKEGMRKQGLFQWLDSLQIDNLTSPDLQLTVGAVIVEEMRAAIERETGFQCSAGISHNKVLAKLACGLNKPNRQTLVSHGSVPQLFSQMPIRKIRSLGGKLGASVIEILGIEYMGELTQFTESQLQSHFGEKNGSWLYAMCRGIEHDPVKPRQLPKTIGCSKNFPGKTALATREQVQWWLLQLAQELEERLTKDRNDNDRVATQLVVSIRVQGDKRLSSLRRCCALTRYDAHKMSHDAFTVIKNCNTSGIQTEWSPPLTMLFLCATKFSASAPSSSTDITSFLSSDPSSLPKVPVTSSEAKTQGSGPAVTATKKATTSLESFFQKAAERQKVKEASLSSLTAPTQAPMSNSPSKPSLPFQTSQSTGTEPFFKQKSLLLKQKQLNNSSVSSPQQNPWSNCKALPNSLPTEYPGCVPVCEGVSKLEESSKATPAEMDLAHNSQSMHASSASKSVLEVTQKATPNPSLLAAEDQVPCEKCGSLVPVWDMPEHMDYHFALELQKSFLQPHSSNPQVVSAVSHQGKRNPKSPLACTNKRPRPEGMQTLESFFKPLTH
# Chain of UniProt Q96QE3 (Q96QE3 whole entry, looked up, the tested form may be a part): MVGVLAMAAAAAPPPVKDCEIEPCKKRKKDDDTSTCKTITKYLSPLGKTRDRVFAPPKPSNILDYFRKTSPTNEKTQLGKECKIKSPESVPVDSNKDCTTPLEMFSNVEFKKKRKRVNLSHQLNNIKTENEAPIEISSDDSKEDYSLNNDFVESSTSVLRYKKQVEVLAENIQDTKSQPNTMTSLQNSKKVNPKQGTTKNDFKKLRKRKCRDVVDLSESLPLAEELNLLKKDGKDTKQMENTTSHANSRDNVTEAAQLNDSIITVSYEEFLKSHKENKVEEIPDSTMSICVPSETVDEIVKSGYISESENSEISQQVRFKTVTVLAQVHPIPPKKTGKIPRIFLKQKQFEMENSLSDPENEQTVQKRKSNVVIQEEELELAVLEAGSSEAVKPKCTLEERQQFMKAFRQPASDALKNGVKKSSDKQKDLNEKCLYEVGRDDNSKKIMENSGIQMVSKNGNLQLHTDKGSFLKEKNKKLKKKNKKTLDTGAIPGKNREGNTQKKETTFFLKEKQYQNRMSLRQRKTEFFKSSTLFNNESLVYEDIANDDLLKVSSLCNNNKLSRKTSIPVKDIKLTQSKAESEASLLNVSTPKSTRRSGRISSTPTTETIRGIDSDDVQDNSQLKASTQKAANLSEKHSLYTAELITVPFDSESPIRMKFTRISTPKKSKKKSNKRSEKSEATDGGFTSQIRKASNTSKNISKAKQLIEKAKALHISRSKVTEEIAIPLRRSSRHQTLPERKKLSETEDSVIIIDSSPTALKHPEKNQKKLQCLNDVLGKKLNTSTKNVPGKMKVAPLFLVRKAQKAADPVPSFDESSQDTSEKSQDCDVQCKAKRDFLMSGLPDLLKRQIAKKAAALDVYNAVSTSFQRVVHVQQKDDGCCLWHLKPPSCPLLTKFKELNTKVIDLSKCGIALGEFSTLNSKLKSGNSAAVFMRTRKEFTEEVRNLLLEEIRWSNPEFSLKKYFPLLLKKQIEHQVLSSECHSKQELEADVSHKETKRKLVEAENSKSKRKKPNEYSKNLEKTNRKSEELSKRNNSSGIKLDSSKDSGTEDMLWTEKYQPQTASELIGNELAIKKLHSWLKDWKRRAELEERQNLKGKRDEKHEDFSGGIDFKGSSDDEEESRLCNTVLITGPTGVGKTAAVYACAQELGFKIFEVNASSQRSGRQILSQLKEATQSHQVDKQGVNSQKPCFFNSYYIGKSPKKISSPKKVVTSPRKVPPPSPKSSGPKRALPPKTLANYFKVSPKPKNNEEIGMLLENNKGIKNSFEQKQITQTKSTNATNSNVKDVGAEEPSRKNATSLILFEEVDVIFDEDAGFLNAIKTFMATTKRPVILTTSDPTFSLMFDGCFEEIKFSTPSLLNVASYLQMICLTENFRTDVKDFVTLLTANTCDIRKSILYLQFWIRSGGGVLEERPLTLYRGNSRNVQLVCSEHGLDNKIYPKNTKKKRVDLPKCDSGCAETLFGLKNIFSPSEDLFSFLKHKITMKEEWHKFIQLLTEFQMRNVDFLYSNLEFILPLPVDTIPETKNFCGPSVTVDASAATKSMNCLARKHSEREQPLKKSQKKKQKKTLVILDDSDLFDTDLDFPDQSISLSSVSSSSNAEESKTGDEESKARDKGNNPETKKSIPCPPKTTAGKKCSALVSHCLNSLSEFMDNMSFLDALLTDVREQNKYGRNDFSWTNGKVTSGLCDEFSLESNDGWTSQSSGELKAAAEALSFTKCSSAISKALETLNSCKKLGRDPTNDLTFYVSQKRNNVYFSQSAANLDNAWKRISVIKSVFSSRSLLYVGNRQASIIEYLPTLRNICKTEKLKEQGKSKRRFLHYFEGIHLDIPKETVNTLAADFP
structure (smiles),measurement,setting,value
Cc1cccc(-n2c(N)c(-c3nc4ccccc4n3C)c3nc4ccccc4nc32)c1,Potency,[1],"inconclusive [rising, full curve]"
same,Potency,[2],inactive
same,Potency,[3],"inconclusive [activator, partial curve, poor fit]"
same,Potency,[4],"inconclusive [activator, partial curve, poor fit]"
C=CCOc1ccc(C=NNc2ccc(S(=O)(=O)Nc3ccccc3C(=O)O)cc2[N+](=O)[O-])cc1OC,Potency,[5],"inconclusive [inhibitor, partial curve]"
same,Potency,[2],active: 7.57 µM
same,Potency,[3],inactive
same,Potency,[4],"inconclusive [activator, partial curve, poor fit]"
O=C(NCC(c1ccco1)N1CCCC1)c1ccccc1Sc1ccc(C(F)(F)F)cc1[N+](=O)[O-] (configuration not stated),Potency,[2],"inconclusive [inhibitor, partial curve]"
same,Potency,[6],inactive
COc1cc2c(cc1OC)-c1cc(NCc3ccccn3)nc(=O)n1CC2,Potency,[7],inactive
same,Potency,[2],active: 37.9 µM
same,Potency,[3],inactive
same,activation,[4],inconclusive: 31.7% [activator]
O=C(c1ccco1)N(CCC(c1ccccc1)c1ccco1)Cc1ccccc1 (configuration not stated),Potency,[8],"inconclusive [inhibitor, single point]"
same,Potency,[2],active: 44.7 µM
same,Potency,[3],inactive
same,activation,[4],inactive: 15.8% [at 30.8 µM]
COc1cc(N)c(Cl)cc1C(=O)OCC(=O)c1ccc2c(c1)NC(=O)CO2,Potency,[9],"inconclusive [inhibitor, partial curve, poor fit]"
same,Potency,[1],inactive
same,Potency,[2],"inconclusive [inhibitor, partial curve, poor fit]"
same,Potency,[3],inactive
